Test results reported in PubChem BioAssay AID485281 (National Center for Advancing Translational Sciences (NCATS), 2010).
In all, about 350,000 compounds went through this assay and about 260 (0.074%) were called active. The shares of active, inactive and inconclusive entries below differ from those in the screen. The call rests on the fitted dose curve; in most records, active means well fitted inhibition curve with a large enough effect; inconclusive means small, poorly fitted or top-dose-only effect; inactive means no such curve, though single readings can be large or run the other way. A potency beside an inconclusive call is a rough fit, not a confirmed value.

What follows are compounds tested against Ferritin light chain (Equus caballus) (UniProt P02791) (assay: qHTS Assay for Identification of Novel General Anesthetics). Settings: apoferritin/1-aminoanthracene competitive binding, fluorescence; activity change, negative = displacement: at 77.5 µM (top of the series).
Sequence of UniProt P02791 (P02791 whole entry, looked up): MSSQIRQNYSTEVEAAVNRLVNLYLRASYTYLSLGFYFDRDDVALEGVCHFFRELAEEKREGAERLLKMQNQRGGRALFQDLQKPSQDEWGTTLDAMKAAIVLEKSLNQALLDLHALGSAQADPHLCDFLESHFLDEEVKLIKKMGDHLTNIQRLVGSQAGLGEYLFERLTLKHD
Procedure, shortened: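 Read-out: endpoint 1-AMA fluorescence, excitation 380 nm and emission 535 nm, after compounds sit 10 min at room temperature with 10 uM horse-spleen apoferritin in 50% saturated 1-AMA/PBS. Values come from four-parameter Hill fits.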
Further: nearly all actives have a fitted effect of over 20% in size.
On the % scale 0 is the no-effect control and ±100 the full control effect; potency means the concentration at half of the fitted maximal effect; tags describe the fitted curve by direction and shape.

Activity change, negative = displacement, inactive:
Cc1ccc(-c2noc(-c3ccc(N4CCCC4)c([N+](=O)[O-])c3)n2)cc1 50.2%, Cc1ccc(C(=O)Nc2c(C(=O)Nc3ccc(C)c(C)c3)sc3nc(C)cc(C)c23)cc1 -2.92%, O=C(O)c1cccc(NCc2cccnc2)c1 -2.59%, O=c1[nH]c2cc(Cl)ccc2n(CCNc2ncc(C(F)(F)F)cc2Cl)c1=O -5.88%, O=C(c1ccco1)N1CCCC(N2CCN(c3ccccc3F)CC2)C1 (centres undefined) -4.65%, CC(=O)Nc1ccc(/C=N/NC(=O)c2cc3cc(C)ccc3nc2C)cc1 -11.3%, c1ccc(C(NCc2cccnc2)(c2ccccc2)c2ccccc2)cc1 50.2%, CCCCC1=CC2=CC(=O)C(C)(OC(=O)c3cnc4ccccc4n3)C(=O)C2=CO1 (centres undefined) -18.1%, CCN(CC)CCOc1ccc2nc(N(C)C)sc2c1 -14.6%, N[C@H](C(=O)O)c1cc(O)cc(O)c1 15.4%, CCOC(=O)N1CCC(Nc2ncnc3c2cnn3-c2ccc(C)cc2C)CC1 -9.95%, C#CCOCCOCCOCCNc1nc(N2CCN(C(=O)[C@H](CCC(=O)O)n3cc(C(N)CC(C)C)nn3)CC2)nc(N2CCN(C(=O)[C@H](Cc3cc4ccccc4[nH]3)n3cc(C(N)CC(C)C)nn3)CC2)n1 (some centres undefined) -1.9%, O=C(O)C1Cc2[nH]cnc2C(c2ccccc2O)N1 (centres undefined) -4.92%, O=C1CC(c2nc(-c3ccccc3)no2)CN1c1ccc2c(c1)OCCO2 (centres undefined) -16.7%, CCOc1ccc(NC(=O)/C(C#N)=C/c2ccc(N3CCCC3)c(C)c2)cc1 -4.89%, O=c1c2ccccc2sc2nc(C3CCCCC3)n(Cc3ccco3)c(=O)c12 -3%, COc1ccc2c(c1)CC(C(=O)NCCN1CCN(c3cccc(C)c3C)CC1)CO2 (centres undefined) -17%, COc1ccc(CCNC(=O)Nc2ccc(F)cc2F)cc1OC -0.93%, CCOC(=O)c1ccc(CN(Cc2ccc(C)cc2)S(=O)(=O)c2ccc(NC(C)=O)cc2)cc1 -8.35%, CC(C)CC(=O)/C=C/n1c(=S)oc2ccccc21 -13.8%, CC(=O)N1CCCc2cc(S(=O)(=O)N3CCCC(C(=O)Nc4cccc(Cl)c4C)C3)ccc21 (centres undefined) -2.17%

Potency, inactive:
CCN1C(=S)N[C@@H](CCc2ccccc2)C(C(=O)OC)=C1C

Potency, inconclusive:
Cc1cc(C(=O)NCc2nc(-c3ccccc3)no2)ccc1[N+](=O)[O-] 31.6 µM [inhibitor, partial curve], CC(c1ccccc1)C1CC(=O)N(Cc2ccccc2)C1=O (centres undefined) 31.6 µM [inhibitor, partial curve], Cc1ccc(Cl)cc1NC(=O)CCn1cccc1 35.5 µM [inhibitor, partial curve], CCN(CC)CCNc1ncnc2c1[nH]c1ccc(OC)cc12 35.5 µM [inhibitor, partial curve], CCN(CC)CCCNC(=O)c1ccc2c(c1)sc1nc(-c3ccc(C)cc3)cn12 3.55 µM [inhibitor, full curve, poor fit], Cc1c(NC(=O)/C(C#N)=C/c2ccc(-c3ccccc3Cl)o2)c(=O)n(-c2ccccc2)n1C 50.1 µM [inhibitor, single point], N#CCC1c2ccccc2CCN1C(=O)Nc1cccc(C(F)(F)F)c1 (centres undefined) 25.1 µM [inhibitor, partial curve], CN(C)C/C(Cl)=C(\Cl)c1ccccc1 31.6 µM [inhibitor, partial curve], COCC(C)n1c(C)cc(C(=O)CSc2nnc(N)s2)c1C (centres undefined) 56.2 µM [inhibitor, single point], Cc1cc(N2C(=O)C(O)=C(C(=O)c3cc4ccccc4o3)C2c2cccs2)no1 (centres undefined) 25.1 µM [inhibitor, partial curve], Cc1ccc(-c2cc(C(=O)NCc3ccc4c(c3)OCO4)[nH]n2)c(O)c1C 6.31 µM [inhibitor, partial curve], Cc1nc(Nc2ccccc2)sc1C 17.8 µM [inhibitor, partial curve], Cc1ccccc1CNC(=O)C(=O)NCC(c1cccs1)S(=O)(=O)c1ccc(Cl)cc1 (centres undefined) 3.98 µM [inhibitor, partial curve], Cc1[nH]nc(N)c1N=Nc1ccc(Br)cc1 14.1 µM [inhibitor, partial curve], O=C(NCc1ccccc1)[C@@H]1CSC2c3ccccc3C(=O)N21 (some centres undefined) 3.98 µM [inhibitor, full curve, poor fit], Cc1cccc(NC(=S)NC(=O)CCc2ccccc2)c1 7.08 µM [inhibitor, partial curve], O=C(c1ccc(Cl)cc1)N1CCc2ccccc21 35.5 µM [inhibitor, single point], Cc1ccc(Cn2ncc(Cl)c(Cl)c2=O)cc1 50.1 µM [inhibitor, single point], CCn1c(Cc2ccccc2)nnc1SCC(=O)Nc1ccc2c(c1)OCO2 28.2 µM [inhibitor, single point], O=C1C2C3CCCC3=C3CCCC3C2C(=O)N1c1ccc(F)cc1 (centres undefined) 28.2 µM [inhibitor, partial curve], Clc1ccc(-c2n[nH]c3c2CCC3)cc1Cl 31.6 µM [inhibitor, partial curve], Cc1c(Cl)cccc1-n1ncc(C(=O)Nc2ccc(F)cc2F)c1C1CCN(C(=O)OC(C)(C)C)CC1 3.55 µM [inhibitor, full curve], CCCOc1ccc2c(=O)c(N3C(=O)c4ccccc4C3=O)c(C)oc2c1 35.5 µM [inhibitor, partial curve], Cc1cc2cc(CCNC(=O)c3ccc(S(=O)(=O)N4CCCC4)cc3)c(=O)[nH]c2cc1C 3.55 µM [inhibitor, full curve], O=C1c2cccc3c(Nc4ccccc4Cl)c([N+](=O)[O-])cc(c23)C(=O)N1CCO 17.8 µM [inhibitor, partial curve], CC(=O)N(c1nnc(-c2ccc(C)cc2)s1)C1CCCC1 28.2 µM [inhibitor, single point], COC(=O)c1[nH]c2ccccc2c1NC(=O)CN1CCCc2ccccc21 12.6 µM [inhibitor, partial curve], COCCN1Cc2cccc(C(=O)Nc3ccc(Cl)cc3Cl)c2C1=O 28.2 µM [inhibitor, partial curve], C/C(=N\OC(=O)c1ccc(C)cc1)c1sc(C)nc1C 44.7 µM [inhibitor, single point], CCOc1cc(C2C(C(=O)OC)=C(C)NC3=C2C(=O)c2ccccc23)c(Br)cc1O (centres undefined) 11.2 µM [inhibitor, partial curve], O=C(CSc1nnnn1-c1ccccc1)Nc1ncc2c(n1)CC(c1ccco1)CC2=O (centres undefined) 39.8 µM [inhibitor, partial curve], Nc1nnc(SCC(=O)NC23CC4CC(CC(C4)C2)C3)s1 14.1 µM [inhibitor, partial curve, poor fit], C/C(N)=C(/C#N)C(=O)COC(=O)CCC1CCCC1 15.8 µM [inhibitor, partial curve], O=C(COC(=O)c1cc(S(=O)(=O)N2CCCCC2)ccc1N1CCOCC1)NCCc1ccc(F)cc1 15.8 µM [inhibitor, partial curve], O=C(COC(=O)[C@H](Cc1ccccc1)N1C(=O)c2ccccc2C1=O)Nc1ccc2c(c1)OCO2 25.1 µM [inhibitor, partial curve], CCCCOC1(c2ccccc2)NC(=S)NN=C1c1ccccc1 (centres undefined) 31.6 µM [inhibitor, single point], Cc1cc(C(=O)OCC(=O)NC2CCCCC2)c(C)o1 28.2 µM [inhibitor, partial curve], Cc1ccc(OC(=O)CCC(=O)N2CCc3ccccc32)cc1 25.1 µM [inhibitor, partial curve], Cc1cc(OCCCCn2ccnc2)cc(C)c1Cl 28.2 µM [inhibitor, partial curve], CC1(C)C(=S)N(Cc2ccccc2)c2ccccc21 5.62 µM [inhibitor, full curve], CCCCN1C(=O)N(c2ccccc2Cl)C(C)(O)CC1(C)C (centres undefined) 35.5 µM [inhibitor, single point], CCOc1ccccc1-n1nnnc1SCC(=O)NC(=O)Nc1ccc2c(c1)OCCO2 3.16 µM [inhibitor, full curve], CCC(=O)N1N=C(c2c(-c3ccccc3)c3cc(Cl)ccc3[nH]c2=O)CC1c1ccco1 (centres undefined) 8.91 µM [inhibitor, partial curve], Nc1c(-c2cccc(Cl)c2)cnn1-c1cccc(C(F)(F)F)c1 15.8 µM [inhibitor, partial curve], CCOc1ccc2c(c1)cc(CN(C(=O)CC)C1CCCCC1)c1nnnn12 7.08 µM [inhibitor, partial curve], Nc1nc2ccccc2n1Cc1ccc(Cl)c(Cl)c1 28.2 µM [inhibitor, partial curve], O=C(Oc1ccc(-c2cnc3ccccc3n2)cc1)c1ccco1 50.1 µM [inhibitor, partial curve, poor fit]
